T1: UNK ZnF1-3 (human, UniProt Q9C0B0 31-174)
T1 sequence: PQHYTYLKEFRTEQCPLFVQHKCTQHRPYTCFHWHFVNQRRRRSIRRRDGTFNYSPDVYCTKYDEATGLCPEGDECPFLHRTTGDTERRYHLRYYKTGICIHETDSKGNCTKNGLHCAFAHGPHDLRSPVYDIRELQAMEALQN

B1: chr16:50257146:50257147:+_ENSG00000121274_ENST00000436909|hu_mus|motif|central (ssRNA)
RNA: GGGAGUUCUACAGUCCGACGAUCUAUCCGGAUGCCAGUCUUUAAGUAAUUGAAGUGCCGUCCAUAUAAUUCAAAAAACUCGGUUAAGAGAACACCAUAGUUUGUAUUGGGGAUGCAAGCAUCUUCCCUGGGAUGUAACUGAAGCAACAGAGGAUUGAGCAUCA
B2: chr19:8913112:8913113:-_ENSMUSG00000071658_ENSMUST00000096259|mus_hu|FALSE|FALSE (ssRNA)
RNA: GGGAGUUCUACAGUCCGACGAUCAAGCUGGCUUCAAUCUUAAGCUGUUCCACCAUCUUGCGUGCUUGCCCAAUACUCAUAGUGCUGUUCACCGGGGUCUCACCUUUCAUCCUGAAGCCACAAGCGGCAGUAGCAGCCCUGGGUCAACAGAGGAUUGAGCAUCA
B3: chr7:151048522:151048523:+_ENSG00000013374_ENST00000566856|hu_mus|hu_hu_hu_mus_True|28_68 (ssRNA)
RNA: GGGAGUUCUACAGUCCGACGAUCCUGUUUCUUAUUUAUUACGAUCUUGAUGUAAUUUUCUUGAAAUCCAAAGGUUUCAGCUAUUUGACACCUCAGGUCUCUACCAGUGAUGUGCAAGCGGGUCUCCAACAAGCUUUUCUUAUCCAACAGAGGAUUGAGCAUCA
B4: chr2:100010981:100010982:+_ENSG00000158417_ENST00000289371|hu_hu|FALSE|FALSE (ssRNA)
RNA: GGGAGUUCUACAGUCCGACGAUCUUCCAACAUCACUGAAGCCUUCAUAACAUCUUUUUUAUGCACUGGGCCAAUGUUAAUUCCUGCAUAGGGCACUUCUGAUGUUUUCAGAAAUUCCAGUAGAGCUUCCAAAGAACCCAGUGUCAACAGAGGAUUGAGCAUCA
B5: chr8:95500983:95500984:-_ENSG00000164944_ENST00000437199|hu_hu|hu_hu_hu_mus_True|58_108 (ssRNA)
RNA: GGGAGUUCUACAGUCCGACGAUCAGAAGGAUUUUUACGAGUAAAGGACCGUACAUGACGGCCUCUACCACUGCCUCCCACUAACAACUUUCCUCUCGAGCCUCCACUGCCGCUAUUUGUACUAGCCCAGGACGGUCCCAGGCCCAACAGAGGAUUGAGCAUCA
B6: chr16:75691255:75691256:+_ENSG00000166848_ENST00000300086|hu_hu|motif|central (ssRNA)
RNA: GGGAGUUCUACAGUCCGACGAUCAAAGUUAUAUUUAUUUUCAACAAUGAAAACAACACAACAAAGUGGAGUCAAUCCACGGAUUUUUUAAAUCUAACACAAUGCUUAGCACAAACAAUACUCAAUAAAUAACACAUUAACCAACAACAGAGGAUUGAGCAUCA
B7: chr17:73774127:73774128:-_ENSG00000132475_ENST00000254810|hu_mus|FALSE|FALSE (ssRNA)
RNA: GGGAGUUCUACAGUCCGACGAUCUGACAAGACUCCCCACCACUUGUGAAUGUAAAACAUUUAAUUUAAAAAUGUUGAACACUACAAUAUAUAAAAUAGCUAUUAUAAAUGCACAUAGUGUAUUCUAUAGCUGCCAGGUUUACUCAACAGAGGAUUGAGCAUCA
B8: chr14:89338683:89338684:+_ENSG00000165533_ENST00000346301|hu_hu|hu_hu_hu_mus_False|68_78 (ssRNA)
RNA: GGGAGUUCUACAGUCCGACGAUCGUGGUUGUUGUGGACCAGGGCCAGCCUGAAGCACUGAUGGGCCAAAUUUGUAUCUCCGAUUCCCACAGCUAUGUGCCCCAGGUUGUACCAGACAUCAGCUGCCUCUUCUUCAUUUUCAGCCAACAGAGGAUUGAGCAUCA
B9: chr16:94664741:94664742:+_ENSMUSG00000040785_ENSMUST00000117648|mus_hu|mus_mus_mus_hu_False|48_68 (ssRNA)
RNA: GGGAGUUCUACAGUCCGACGAUCUGGUACUGAUCUUGGUAGCUGAUAUUCAGGAGAAAGGCUGGCCAAAGGUGUGUAUAUGCUGGUGAACUGCGACAAACCUGGUAACACGUUUAUGUAUGCUGGCGGUGUCUGGGUGAUAUCCAACAGAGGAUUGAGCAUCA
B10: chr4:95202638:95202639:+_ENSG00000163104_ENST00000354268|hu_mus|FALSE|FALSE (ssRNA)
RNA: GGGAGUUCUACAGUCCGACGAUCUAAGAGAACCUCUAGUAUAUCCAGCAUCAUGGUAAACUGGCUGAAUAAUACAACUCUAUCACCCUUCUGUUUCAACUCAGACAAGAUGCAUCCUAAGGCUCGGAAUUUCCCAGAAUCUAACAACAGAGGAUUGAGCAUCA
B11: chr17:65930154:65930155:-_ENSMUSG00000024091_ENSMUST00000024897|mus_mus|FALSE|FALSE (ssRNA)
RNA: GGGAGUUCUACAGUCCGACGAUCGGUGACAUUAUCUCUGAAGGACACGGCUGAGGUGGAUCCAGGUUUAUCCGAAUGUGCUACCUUUCUGAGCCUUAGGCCUUCAUCUCUCAGGUGUCGGUUUUCUUCUGAGAGCUUCAUCAUCAACAGAGGAUUGAGCAUCA
B12: chr14:90870812:90870813:+_ENSG00000198668_ENST00000553542|hu_hu|FALSE|FALSE (ssRNA)
RNA: GGGAGUUCUACAGUCCGACGAUCAUCAAUAUCUGCUUCUCUGAUCAUUUCAUCUACUUCUUCAUCUGUUAGUUUUUCUCCUAAGUUUGUCAUGACGUGACGUAGUUCUGCUGCACUGAUAUAACCAUUGCCAUCCUUGUCAAACAACAGAGGAUUGAGCAUCA
B13: chr1:130260868:130260869:-_ENSMUSG00000026356_ENSMUST00000027602|mus_mus|FALSE|FALSE (ssRNA)
RNA: GGGAGUUCUACAGUCCGACGAUCCGUGAGUCGUUUGGGGUCACGAGGGAACAUUGAGGUCUGGCGUACGUUAUGCAAUCCUAAAAACAGCAUCGUCACCCUUUCCAGCCCAAUGCCACCACCAGCAUGAGGAGGAGCUCCAAACAACAGAGGAUUGAGCAUCA
B14: chr18:67649703:67649704:-_ENSMUSG00000024533_ENSMUST00000115050|mus_hu|FALSE|FALSE (ssRNA)
RNA: GGGAGUUCUACAGUCCGACGAUCGUUACUGUAUUUUGAUGUGGUAUGAAAUGCAGCCGCCAUGCCUUUCAUGAAACGGUGCUAUCGUGGUGCUGACUACAGACAUGUCCUAUGGCUUUCAGGAAAUUAUUGUGCAUGUGCAUUCAACAGAGGAUUGAGCAUCA
B15: 93602292_93602412_3376_3pUTR_ENSMUSG00000058013_ENSMUST00000074733|mouse|control|control (ssRNA)
RNA: GGGAGUUCUACAGUCCGACGAUCGCAGAAGCAAUGCUUUUCUCUUUUUUAAGCUUCUUUAGGAUUCUCUUGACUUCUUAUUCCCUGACUCUCCAGAGGAUUUAUUUUACUGAGAACAAAAACUUAAUGCAAAAAAAAUUCAAUCAACAGAGGAUUGAGCAUCA
B16: chr7:107556079:107556080:+_ENSG00000091140_ENST00000440410|hu_mus|FALSE|FALSE (ssRNA)
RNA: GGGAGUUCUACAGUCCGACGAUCAUCAAUUUUUCCAUCUGACUUCUUGGUGGCACCAGUAACUUUUGUAUUCAGUUUAAACUUAAAUCCUUGCCUCUGAAGUAUACGUUGAAAAUUUUUUGAUAUCUCCAUGUCAAUUCCAAUCAACAGAGGAUUGAGCAUCA
B17: chr5:29673426:29673427:-_ENSMUSG00000010721_ENSMUST00000055195|mus_mus|FALSE|FALSE (ssRNA)
RNA: GGGAGUUCUACAGUCCGACGAUCAUUGCUGAUGAUUGAGAAGGGUAAAAGCAAAACCGCGCCAGCUGACACGGCUAGAGUGAAGGUGCUCAGAAACAACGAUAUCCUGUUGACUACAGCAUCCUCAUCUUCUUGUUCAUCGGACAACAGAGGAUUGAGCAUCA
B18: 65670484_65705406_359_5pUTR_ENSG00000169902_ENST00000304842|human|control|control (ssRNA)
RNA: GGGAGUUCUACAGUCCGACGAUCGUGGUUAUCUUGUUAUUAAACAGAUAUUUUGCUCAAAAUGAUUUUCGGAAAAUGUUCAGGCCAUGGACAGUCUACUUCAGAAAGAUAACCAACAUCUGGGAUGAGUGAGGAGCCGCCGCGCAACAGAGGAUUGAGCAUCA
B19: chr7:141450121:141450122:+_ENSG00000106028_ENST00000265304|hu_mus|hu_hu_hu_mus_True|38_88 (ssRNA)
RNA: GGGAGUUCUACAGUCCGACGAUCUCAUCCGUUCUAUGCCUUUUCUUUCGUCUGGUCACUCAGAAAUAUAAUGUUAUCAGCUAUGAUUGUUGUUGCUUGUCGCCUCACAUUGUUUUUAUCCAUGUACUCGCCAUAGUCCACUUUCAACAGAGGAUUGAGCAUCA
B20: 11082498_11082618_1206_CDS_ENSG00000120948_ENST00000240185|human|control|control (ssRNA)
RNA: GGGAGUUCUACAGUCCGACGAUCACCAAUUGCUGCACCAGAAUUAGAGCCACUAUAAGAGUUAUUUCCAGAACCGAAGGCCUGGUUUGGCUCCCUCUGCAUGUUGCCUUGGUUUUGGUUAUUACCCGAUGGGCCUGACUGGUUCAACAGAGGAUUGAGCAUCA
B21: chr4:25749455:25749456:-_ENSG00000091490_ENST00000264868|hu_hu|hu_hu_hu_mus_False|88_88 (ssRNA)
RNA: GGGAGUUCUACAGUCCGACGAUCGCACUAUGACCUCUAGAAAAAUCAUUCAAGGAGAAAAAUGUAAACCAAUGUACAAUGUUAUCGCCUUCCCUGUGUGUGGAGUGUUUGUCUCAAGGCUCCUUCUAGCUGCUGGAUUUGGGACAACAGAGGAUUGAGCAUCA
B22: chr10:112764417:112764418:+_ENSG00000108061_ENST00000369452|hu_mus|motif|central (ssRNA)
RNA: GGGAGUUCUACAGUCCGACGAUCAAUGGUGGAAAACUGAGAUGGACCUCCCACUGGAUAUAACUGGAAGCAAUUUCGGGCGGAGGUCAAGCUAUUCAAUUUUACAAGACUGGAUAAAAGACUCUCUGGUAGAGUAGAAAUGUUCAACAGAGGAUUGAGCAUCA

Some of the results follow.

This experiment addresses T1, UNK ZnF1-3. The experiment in a line: nsRBNS (natural sequence RNA bind-n-seq); RBNS binding buffer (assumed for nsRBNS): 25 mM Tris pH 7.5, 150 mM KCl, 3 mM MgCl2, 0.01% Triton X-100, 500 ug/ml BSA, 20 U/ml SUPERase-In, 4 C; UNK is unkempt and MSI1 is Musashi-1; names of the RNAs are library labels; protein concentration not given here; high values mean tight binding.
In turn, B1 returned a binding signal of 1.67 enrichment R. B2: the binding signal was 1.02 enrichment R. B3 yielded a binding signal of 0.594 enrichment R. In the case of B4 it was 0.491 enrichment R; in that of B5, 0.931 enrichment R; in that of B6, 1.22 enrichment R. On to B7, for which the binding signal was found to be 1.14 enrichment R. In the case of B8 it was 0.775 enrichment R; in that of B9, 1.03 enrichment R. In the case of B10 it was 1.12 enrichment R. In the case of B11 it was 0.492 enrichment R; in that of B12, 0.451 enrichment R. B13: the binding signal was 1.17 enrichment R.

Regarding B14, the binding signal stood at 0.758 enrichment R. For B15, the binding signal was found to be 2.31 enrichment R. In the case of B16 it was 1.05 enrichment R; in that of B17, 0.672 enrichment R; in that of B18, 1.62 enrichment R. In the case of B19 it was 0.412 enrichment R; in that of B20, 0.932 enrichment R; in that of B21, 1.2 enrichment R. In the case of B22 it was 1.34 enrichment R.

Values taken from article PMC12136788.
